The assay deals with human ROR1 (hROR1) (human, UniProt Q01973). In words: cell-based or functional assay.

B1: Conjugate 3 (2188-D04-Y180-LP9) (antibody, human IgG1, kappa)
heavy: MEVQLVESGGGLVQPGGSLRLSCAASGFNISDYDIHWVRQAPGKGLEWVGGIDPADGSTDYADSVKGRFTISADTSKNTAYLQMNSLRAEDTAVYYCARDYGVYDYWGQGTLVTVSS[human IgG1 constant region cut from this listing]
light: [about 200 residues cut from this listing]
modifications: pAMF in place of HC-Y180 (EU numbering), conjugated to LP9 (DBCO-PEG4-VA-PBD)
Turning to B1, the “cell killing on ROR1 positive NTERA-2 cells, EC50” value came out at 0.3 pM and the “cell killing on ROR1 positive NTERA-2 cells, Span” value turned out to be 95%.

These data come from patent publication US20240058465A1 (SUTRO BIOPHARMA, published 2024).
